Common to all, as to experiment: co-IP
Experiment [1] concerns the target HCMV core NEC (transiently coexpressed pUL50 and pUL53) (human cytomegalovirus (HCMV)) (UniProt P16791).
Experiment [2] has as its target HCMV pUL53, Flag-tagged (pcDNA-UL53-Flag) (human cytomegalovirus (HCMV)) (UniProt P16794).
Experiment [3] deals with HCMV pUL53, HA-tagged (human cytomegalovirus (HCMV)) (UniProt P16794).
The target of experiment [4] is MCMV core NEC (transiently coexpressed pM50 and pM53) (murine cytomegalovirus (MCMV), strain Smith) (UniProt D3XDN8).
The target of experiment [5] is MCMV pM53, Flag-tagged (pcDNA-M53-Flag) (murine cytomegalovirus (MCMV), strain Smith) (UniProt D3XDP1).
The target in experiment [6] is HCMV pUL50, HA-tagged (pcDNA-UL50-HA) (human cytomegalovirus (HCMV)) (UniProt P16791).
The target of experiment [7] is T1, EBV BFLF2, Flag-tagged (pcDNA-BFLF2-Flag) (Epstein-Barr virus (EBV), strain B95-8) (UniProt P0CK47).
T1 sequence: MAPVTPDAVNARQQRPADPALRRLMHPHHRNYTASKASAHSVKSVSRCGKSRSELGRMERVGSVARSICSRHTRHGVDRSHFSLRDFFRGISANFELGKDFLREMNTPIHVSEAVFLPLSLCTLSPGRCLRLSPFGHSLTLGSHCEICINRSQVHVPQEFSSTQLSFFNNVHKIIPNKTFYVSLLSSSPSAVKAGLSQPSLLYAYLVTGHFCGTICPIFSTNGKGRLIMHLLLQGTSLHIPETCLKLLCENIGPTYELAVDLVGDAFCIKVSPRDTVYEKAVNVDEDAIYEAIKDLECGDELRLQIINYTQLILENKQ

Protein sequences, listed by entry. Tags and fused reporters are not part of them. Residues count along the entry.
UniProt P16791: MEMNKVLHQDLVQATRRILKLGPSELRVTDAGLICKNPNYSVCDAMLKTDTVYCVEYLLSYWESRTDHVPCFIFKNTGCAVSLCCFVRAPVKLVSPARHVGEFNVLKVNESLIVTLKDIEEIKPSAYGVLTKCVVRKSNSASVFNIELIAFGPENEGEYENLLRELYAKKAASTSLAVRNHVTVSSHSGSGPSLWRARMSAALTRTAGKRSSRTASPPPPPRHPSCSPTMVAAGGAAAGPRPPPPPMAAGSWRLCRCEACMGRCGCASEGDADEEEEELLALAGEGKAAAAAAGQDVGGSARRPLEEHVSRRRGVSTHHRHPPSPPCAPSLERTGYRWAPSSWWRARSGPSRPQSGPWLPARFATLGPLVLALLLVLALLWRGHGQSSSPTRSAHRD
UniProt P16794: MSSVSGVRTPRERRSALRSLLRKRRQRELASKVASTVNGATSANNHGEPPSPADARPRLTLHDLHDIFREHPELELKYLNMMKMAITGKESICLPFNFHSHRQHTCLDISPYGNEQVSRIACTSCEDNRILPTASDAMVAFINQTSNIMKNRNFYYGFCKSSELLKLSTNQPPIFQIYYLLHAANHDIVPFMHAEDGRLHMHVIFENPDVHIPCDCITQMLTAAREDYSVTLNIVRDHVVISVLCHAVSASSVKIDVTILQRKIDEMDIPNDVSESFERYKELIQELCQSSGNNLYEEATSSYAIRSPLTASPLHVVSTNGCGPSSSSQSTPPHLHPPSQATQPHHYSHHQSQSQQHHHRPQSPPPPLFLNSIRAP
UniProt D3XDN8: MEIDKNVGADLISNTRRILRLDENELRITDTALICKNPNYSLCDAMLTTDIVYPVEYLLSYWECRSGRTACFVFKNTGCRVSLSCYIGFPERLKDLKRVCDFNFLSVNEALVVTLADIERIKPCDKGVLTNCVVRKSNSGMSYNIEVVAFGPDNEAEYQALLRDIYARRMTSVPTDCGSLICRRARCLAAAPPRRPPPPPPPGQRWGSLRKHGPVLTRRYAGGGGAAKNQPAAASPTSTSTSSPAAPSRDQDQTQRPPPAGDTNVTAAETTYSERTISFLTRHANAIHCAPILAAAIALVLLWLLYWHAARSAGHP
UniProt D3XDP1: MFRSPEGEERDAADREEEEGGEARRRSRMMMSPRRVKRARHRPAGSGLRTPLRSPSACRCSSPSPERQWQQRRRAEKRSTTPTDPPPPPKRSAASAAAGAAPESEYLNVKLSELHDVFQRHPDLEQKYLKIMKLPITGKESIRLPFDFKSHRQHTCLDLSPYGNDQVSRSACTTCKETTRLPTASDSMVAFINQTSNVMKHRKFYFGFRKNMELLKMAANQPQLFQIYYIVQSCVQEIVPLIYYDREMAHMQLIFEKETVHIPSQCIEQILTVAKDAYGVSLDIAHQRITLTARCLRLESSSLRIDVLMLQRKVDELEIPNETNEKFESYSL
UniProt Q07021, residues 74-282: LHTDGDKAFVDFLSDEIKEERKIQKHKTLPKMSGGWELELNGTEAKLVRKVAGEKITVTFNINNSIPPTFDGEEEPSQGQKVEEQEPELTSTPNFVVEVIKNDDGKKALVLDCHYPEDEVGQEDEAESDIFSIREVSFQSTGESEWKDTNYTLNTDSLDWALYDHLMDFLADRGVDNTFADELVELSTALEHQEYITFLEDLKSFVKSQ
UniProt P16788: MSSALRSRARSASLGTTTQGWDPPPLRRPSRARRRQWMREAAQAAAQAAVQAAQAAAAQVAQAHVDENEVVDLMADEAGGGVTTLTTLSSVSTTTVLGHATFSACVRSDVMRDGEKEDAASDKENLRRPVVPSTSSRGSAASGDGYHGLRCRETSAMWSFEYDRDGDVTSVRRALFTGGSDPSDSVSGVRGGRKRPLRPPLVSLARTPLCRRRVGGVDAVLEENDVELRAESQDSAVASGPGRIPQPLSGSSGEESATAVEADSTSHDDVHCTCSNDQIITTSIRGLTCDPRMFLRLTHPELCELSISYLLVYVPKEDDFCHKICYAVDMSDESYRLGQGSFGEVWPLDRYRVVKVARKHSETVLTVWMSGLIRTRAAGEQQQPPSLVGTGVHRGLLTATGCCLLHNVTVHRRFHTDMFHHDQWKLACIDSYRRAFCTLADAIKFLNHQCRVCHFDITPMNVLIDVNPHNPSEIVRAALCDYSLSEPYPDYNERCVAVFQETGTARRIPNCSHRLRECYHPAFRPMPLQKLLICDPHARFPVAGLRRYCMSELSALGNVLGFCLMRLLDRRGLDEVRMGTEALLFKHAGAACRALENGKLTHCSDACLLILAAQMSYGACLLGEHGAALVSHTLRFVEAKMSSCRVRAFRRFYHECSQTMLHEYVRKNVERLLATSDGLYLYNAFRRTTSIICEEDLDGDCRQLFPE
UniProt Q4JQV1: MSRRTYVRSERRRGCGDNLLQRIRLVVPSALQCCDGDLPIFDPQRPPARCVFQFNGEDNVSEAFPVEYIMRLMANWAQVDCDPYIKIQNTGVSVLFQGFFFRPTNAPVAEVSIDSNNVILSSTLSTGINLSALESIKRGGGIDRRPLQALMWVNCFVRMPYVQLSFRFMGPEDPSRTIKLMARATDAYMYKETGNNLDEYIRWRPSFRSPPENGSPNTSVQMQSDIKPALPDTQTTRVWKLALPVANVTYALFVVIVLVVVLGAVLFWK

Experiment [8] concerns the target T2, VZV Orf27, Flag-tagged (pcDNA-Orf27-Flag) (varicella zoster virus (VZV), strain Oka) (UniProt Q4JQU8).
T2 sequence: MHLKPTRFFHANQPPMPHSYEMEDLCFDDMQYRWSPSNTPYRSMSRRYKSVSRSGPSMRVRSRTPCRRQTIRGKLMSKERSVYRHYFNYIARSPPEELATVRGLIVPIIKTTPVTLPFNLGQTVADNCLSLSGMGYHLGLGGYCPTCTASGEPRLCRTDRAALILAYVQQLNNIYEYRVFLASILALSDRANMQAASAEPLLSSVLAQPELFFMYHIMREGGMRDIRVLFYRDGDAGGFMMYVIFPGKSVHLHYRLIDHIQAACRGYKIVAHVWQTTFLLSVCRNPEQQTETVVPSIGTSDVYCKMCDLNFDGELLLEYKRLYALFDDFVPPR

For experiment [9], the target named is MCMV pM50, HA-tagged (pcDNA-M50-HA) (murine cytomegalovirus (MCMV), strain Smith) (UniProt D3XDN8).

Results are given in words; binding and its absence hold for the method and conditions named. Binding seen in cells or lysates may run through a third protein. Some results given as binding are weak or reduced against the parent protein; the word gives no strength. For part of these data: Where a sequence is shown, tags or fusion partners need not be part of it.

“cellular multi-ligand binding protein p32/gC1qR (from UniProt Q07021 74-282)”: the binding entry in experiment [1], in [2], in [3], in [4] and in experiment [5] was “binds” throughout.

With “MCMV pM50, HA-tagged (pcDNA-M50-HA) (from UniProt D3XDN8 1-316)”, the binding result in experiment [5] is “binds”.

As to “MCMV pM53, Flag-tagged (pcDNA-M53-Flag) (from UniProt D3XDP1 1-332)”, the binding result in [6], in [2] and in [3] was “binds” each time.

In the case of “HCMV pUL50, HA-tagged (pcDNA-UL50-HA) (from UniProt P16791 1-397)”, the binding result in [7] was “no binding”; in experiment [2], “binds”; in experiment [8], “no binding”.

As to “HCMV protein kinase pUL97, Flag-tagged (from UniProt P16788 1-707) (enzyme)”, the binding entry in [1] and in experiment [4] was “binds” each time.

“VZV Orf24, HA-tagged (pcDNA-Orf24-HA) (from UniProt Q4JQV1 1-269)”: the binding result is “no binding” in [7], “no binding” in experiment [2] and “binds” in [8].

“HCMV pUL53, Flag-tagged (pcDNA-UL53-Flag) (from UniProt P16794 1-376)”: in [9], the binding result was “binds”.

Source of the values: paper PMC7150769.
